Some of the results follow.
What was measured:
HSkMC = human skeletal muscle cells; assay: cytotoxicity call (relative viability < 0.9); conditions: 10 µM
HepG2 = assay: cytotoxicity call (relative viability < 0.9); conditions: 10 µM
S. aureus RN4220 = assay: growth inhibition call (relative growth <= 0.2); conditions: 50 µM

Compound	cytotoxicity call (HSkMC)	cytotoxicity call (HepG2)	growth inhibition call (S. aureus RN4220)
C[C@@H]1CN([C@@H](C)CO)C(=O)c2cc(NC(=O)Nc3ccc(C(F)(F)F)cc3)ccc2O[C@H]1CN(C)S(=O)(=O)c1ccc(F)cc1	inactive	inactive	inactive
CC(C)NC(=O)N(C)C[C@H]1OCCCC[C@@H](C)Oc2ccc(NS(=O)(=O)c3cn(C)cn3)cc2C(=O)N([C@@H](C)CO)C[C@H]1C	inactive	inactive	inactive
C[C@H]1CN([C@@H](C)CO)C(=O)Cc2cc(NC(=O)Nc3ccc4c(c3)OCO4)ccc2O[C@@H]1CN(C)S(C)(=O)=O	inactive	inactive	inactive
COc1ccc(CN(C)C[C@H]2OCCCC[C@H](C)Oc3ccc(NC(=O)NC4CCCCC4)cc3C(=O)N([C@@H](C)CO)C[C@H]2C)cc1	inactive	active	inactive
Cn1cnc(S(=O)(=O)N[C@@H]2CC[C@H](CC(=O)N3CCN(c4ccccc4)CC3)O[C@H]2CO)c1	inactive	inactive	inactive
Cc1ncc([N+](=O)[O-])n1C	inactive	inactive	inactive
CN1C[C@@H](O)COC[C@H]2O[C@@H](CC(=O)N3CCN(c4ccccc4)CC3)CC[C@@H]21	inactive	inactive	inactive
C[C@H](CO)N1C[C@H](C)[C@@H](CN(C)S(=O)(=O)c2ccc3ccccc3c2)OCc2cnnn2CCCC1=O	inactive	inactive	inactive
Cc1noc(C)c1NC(=O)Nc1ccc2c(c1)C(=O)N([C@@H](C)CO)C[C@@H](C)[C@H](CN(C)S(=O)(=O)c1cccs1)OCCCC[C@@H](C)O2	inactive	inactive	inactive
C[C@@H]1CN([C@H](C)CO)C(=O)c2cc(NC(=O)CCCN(C)C)ccc2O[C@@H]1CN(C)Cc1ccc(Oc2ccccc2)cc1	inactive	active	inactive
Cc1ccc(C(=O)O)c(=O)[nH]1	inactive	inactive	inactive
C[C@H](CO)N1C[C@H](C)[C@@H](CN(C)C(=O)C2CCCCC2)OCCCC[C@H](C)Oc2ccc(NS(=O)(=O)c3ccc(F)cc3)cc2C1=O	inactive	inactive	inactive
CCCNC(=O)N(C)C[C@@H]1Oc2cc(-c3ccccc3F)ccc2S(=O)(=O)N([C@H](C)CO)C[C@@H]1C	inactive	inactive	inactive
Cc1noc(C)c1S(=O)(=O)Nc1ccc2c(c1)C(=O)N([C@@H](C)CO)C[C@@H](C)[C@@H](CN(C)Cc1ccc(C(F)(F)F)cc1)OCCCC[C@@H](C)O2	inactive	inactive	inactive
O=C(C[C@H]1CC[C@H]2[C@@H](COC[C@H](O)CN2S(=O)(=O)c2ccc(Cl)cc2)O1)N[C@H]1CCN(Cc2ccccc2)C1	inactive	inactive	inactive
O=C(C[C@H]1C[C@@H]2c3cc(NS(=O)(=O)c4ccc(F)cc4)ccc3O[C@@H]2[C@H](CO)O1)NCc1cccnc1	inactive	inactive	inactive
C[C@H]1CN([C@@H](C)CO)C(=O)Cc2cc(NC(=O)Nc3ccc(C(F)(F)F)cc3)ccc2O[C@H]1CN(C)C(=O)Nc1ccccc1	active	inactive	inactive
Cn1cnc(S(=O)(=O)N2C[C@@H](O)COC[C@@H]3O[C@@H](CC(=O)NCc4ccc(F)cc4)CC[C@H]32)c1	inactive	inactive	inactive
C[C@@H]1CN([C@H](C)CO)C(=O)c2cc(NC(=O)c3ccccc3)ccc2O[C@@H](C)CCCCO[C@H]1CN(C)S(=O)(=O)c1ccccc1	inactive	active	inactive

Compound	cytotoxicity call (HSkMC)	cytotoxicity call (HepG2)	growth inhibition call (S. aureus RN4220)
CNC(=O)C[C@H]1CC[C@H]2[C@@H](COC[C@H](O)CN2C(=O)c2ccccn2)O1	inactive	inactive	inactive
COc1cccc(NC(=O)N[C@@H]2C=C[C@H](CC(=O)N3CCOCC3)O[C@@H]2CO)c1	inactive	inactive	inactive
C[C@@H]1CCCCO[C@@H](CN(C)C(=O)c2ccccc2)[C@@H](C)CN([C@@H](C)CO)C(=O)c2cc(NC(=O)CCC(F)(F)F)ccc2O1	inactive	inactive	inactive
Nn1cc(Br)c(=O)[nH]c1=O	inactive	inactive	inactive
C[C@H](CO)N1C[C@H](C)[C@H](CN(C)S(=O)(=O)c2ccccc2)OCCCC[C@H](C)Oc2ccc(NC(=O)c3ccccc3)cc2C1=O	inactive	inactive	inactive
COCC#Cc1ccc([C@@H]2[C@H](CO)N3C(=O)CN(C(=O)c4cccnc4)C[C@@H]23)cc1	inactive	inactive	inactive
C[C@H]1CN([C@@H](C)CO)C(=O)c2cccc(NC(=O)c3nc4ccccc4s3)c2O[C@H]1CN(C)Cc1ccc(-c2ccccc2)cc1	inactive	inactive	inactive
Cc1noc(C)c1NC(=O)Nc1ccc2c(c1)C(=O)N([C@@H](C)CO)C[C@H](C)[C@H](CN(C)S(=O)(=O)c1ccc(F)cc1)OCCCC[C@H](C)O2	inactive	inactive	inactive
C[C@H](CO)N1C[C@H](C)[C@H](CN(C)C(=O)Nc2ccc(F)cc2)OCCCC[C@H](C)Oc2ccc(NC(=O)Cc3ccccc3)cc2C1=O	inactive	inactive	inactive
C[C@@H]1CN([C@@H](C)CO)C(=O)c2cc(C#CC3(O)CCCC3)cnc2O[C@H]1CN(C)C(=O)Cc1ccccc1	inactive	inactive	inactive
NC[C@H](c1cccs1)N1CCCCCC1	inactive	inactive	inactive
C[C@@H]1CCCCO[C@H](CN(C)S(=O)(=O)c2cccs2)[C@H](C)CN([C@H](C)CO)C(=O)c2cc(NC(=O)c3ccccc3)ccc2O1	inactive	inactive	inactive
Cc1ccc(S(=O)(=O)N(C)C[C@H]2Oc3ccc(NS(=O)(=O)c4c(C)noc4C)cc3C(=O)N([C@H](C)CO)C[C@H]2C)cc1	inactive	inactive	inactive
C[C@@H]1CCCCO[C@@H](CN(C)CC2CC2)[C@H](C)CN([C@H](C)CO)C(=O)c2cc(NS(C)(=O)=O)ccc2O1	inactive	inactive	inactive
Cc1noc(C)c1NC(=O)N(C)C[C@@H]1Oc2ccc(NS(=O)(=O)c3cn(C)cn3)cc2CC(=O)N([C@H](C)CO)C[C@H]1C	inactive	inactive	inactive
O=C1/C(=C/c2cn(-c3ccccc3)nc2-c2ccc(OCc3ccccc3)cc2)SC(=S)N1CCS(=O)(=O)O	inactive	inactive	inactive
C[C@H](NC(=O)N(C)C[C@@H]1OCc2ccccc2-c2ccccc2C(=O)N([C@@H](C)CO)C[C@H]1C)c1ccccc1	inactive	inactive	inactive
C[C@H]1CCCCO[C@@H](CN(C)C(=O)NC2CCCCC2)[C@@H](C)CN([C@@H](C)CO)C(=O)c2cc(NC(=O)CCC(F)(F)F)ccc2O1	inactive	inactive	inactive
COc1ccc(NC(=O)N(C)C[C@@H]2Oc3c(NC(=O)c4ccc(-c5nccs5)cc4)cccc3C(=O)N([C@H](C)CO)C[C@H]2C)cc1	inactive	inactive	inactive

Compound	cytotoxicity call (HSkMC)	cytotoxicity call (HepG2)	growth inhibition call (S. aureus RN4220)
O=C(Nc1cccc2ccccc12)c1ccc(C(F)(F)F)cc1	inactive	inactive	inactive
O=C(N[C@@H]1CC[C@@H](CCn2cc(C3(O)CCCC3)nn2)O[C@@H]1CO)C1CCOCC1	inactive	inactive	inactive
C[C@H](CO)N1C[C@H](C)[C@H](CN(C)C(=O)c2ccc3c(c2)OCO3)Oc2cc(-c3ccncc3)ccc2S1(=O)=O	inactive	inactive	inactive
C[C@H](CO)N1C[C@H](C)[C@@H](CN(C)C(=O)Cc2ccncc2)Oc2ncc(C#CC3(O)CCCC3)cc2C1=O	inactive	inactive	inactive
CCOC(=O)CCCCCCCCCCCC[C@@H]1C=CCC1	inactive	inactive	inactive
C[C@@H]1CN([C@H](C)CO)C(=O)c2cccc(NC(=O)CCCCCC(=O)Nc3ccccc3N)c2O[C@@H]1CN(C)Cc1ccc(Oc2ccccc2)cc1	inactive	inactive	inactive
C[C@H](CO)N1C[C@H](C)[C@@H](CN(C)C(=O)C2CCC2)Oc2cc(C#Cc3ccncc3)ccc2S1(=O)=O	inactive	active	inactive
C[C@H]1CN([C@@H](C)CO)S(=O)(=O)c2ccc(C#Cc3ccncc3)cc2O[C@H]1CN(C)C(=O)C1CCOCC1	inactive	active	inactive
C[C@H]1CN([C@@H](C)CO)C(=O)c2cc(Br)cnc2O[C@H]1CN(C)Cc1ccccc1C(=O)O	inactive	inactive	inactive
O=C(C[C@@H]1C[C@H]2c3cc(NC(=O)NC4CCCC4)ccc3O[C@H]2[C@H](CO)O1)NCCN1CCCCC1	inactive	inactive	inactive
C[C@H]1CN([C@@H](C)CO)C(=O)c2cc(NC(=O)CCCN(C)C)ccc2O[C@H]1CN(C)Cc1ccncc1	inactive	inactive	inactive
Cc1noc(C)c1S(=O)(=O)N(C)C[C@H]1Oc2ccc(NS(=O)(=O)c3cccs3)cc2CC(=O)N([C@@H](C)CO)C[C@@H]1C	inactive	inactive	inactive
Cc1ccc(S(=O)(=O)N(C)C[C@@H]2Oc3ccc(NC(=O)c4ccncc4)cc3C(=O)N([C@H](C)CO)C[C@@H]2C)cc1	inactive	inactive	inactive
CCC(=O)N(C)C[C@H]1Oc2ncc(C#C[C@H](C)O)cc2C(=O)N([C@H](C)CO)C[C@H]1C	inactive	inactive	inactive
CC(C)(C)OC(=O)CC[C@]1(C(=O)NCCN2CCOCC2)COC(c2ccc(OCCCO)cc2)=N1	inactive	inactive	inactive
CO[C@H]1CN(C)C(=O)c2cc(NS(=O)(=O)CC(F)(F)F)ccc2OC[C@H](C)N(Cc2cccnc2)C[C@H]1C	inactive	inactive	inactive
O=C1OCCC=C[C@H]2O[C@@]34C=CCN(c5ccc6ccccc6c5)C(=O)[C@H]3N(CCCCCCO)C(=O)[C@@H]4[C@@H]12	inactive	inactive	inactive
CO[C@H]1CN(C)C(=O)c2cc(NC(=O)C3CC3)ccc2OC[C@H](C)N(C(=O)C2CCOCC2)C[C@@H]1C	inactive	inactive	inactive
